# Measurements: PubChem BioAssay AID743262 (National Center for Advancing Translational Sciences (NCATS), 2014)
# In all, about 1,300 compounds went through this assay and about 25 (2%) were called active. Inconclusive results (about 9%) are left out. Calls come from the whole dose curve; as a rule, active = well fitted activation curve with a large enough effect; inconclusive = small, poorly fitted or top-dose-only effect; inactive = flat fitted curve, though single readings scatter. The list shows a part of the results.
# Target: Glucagon-like peptide 1 receptor (Homo sapiens) (UniProt P43220)
# UniProt P43220, sequence (P43220 whole entry, looked up): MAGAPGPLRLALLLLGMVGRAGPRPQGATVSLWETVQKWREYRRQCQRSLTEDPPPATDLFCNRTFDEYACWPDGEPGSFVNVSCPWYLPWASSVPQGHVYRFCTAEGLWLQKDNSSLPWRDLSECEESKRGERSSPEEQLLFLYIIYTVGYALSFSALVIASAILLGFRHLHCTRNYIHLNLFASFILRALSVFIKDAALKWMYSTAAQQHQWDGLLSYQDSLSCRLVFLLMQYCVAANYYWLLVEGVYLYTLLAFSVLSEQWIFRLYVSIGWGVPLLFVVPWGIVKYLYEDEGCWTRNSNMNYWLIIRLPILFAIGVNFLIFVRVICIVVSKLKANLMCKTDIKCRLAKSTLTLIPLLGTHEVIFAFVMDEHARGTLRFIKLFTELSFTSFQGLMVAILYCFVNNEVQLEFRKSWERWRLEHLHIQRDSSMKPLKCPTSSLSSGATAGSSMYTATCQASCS
# Test: qHTS of GLP-1 Receptor Agonists: Hit Validation; for activation: % of control where 0% means no effect
# Conditions: HEK293 GLP-1R, cAMP-response luciferase, 4-6 h; series mostly up to 46.1 µM; activation: at the top concentration
# How it was run: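 Stably transfected HEK293 cells co-expressing GLP-1R and a cAMP-responsive luciferase reporter, plated 12 h before compound. Compound exposure 4-6 hr at 37 deg C, 5% CO2; luciferase luminescence read after 12 min detection at RT.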
# Potency is the fitted concentration of half-maximal effect.
Compound,activation,Potency
N#Cc1c(NCCCO)nc(-c2ccccc2)c2c1CCCC2,inactive: 10.7%,
Clc1cccc(-c2nc3ccc(Cl)cn3c2Cc2ccccc2)c1,inactive: 3.18%,
CN(C)CCc1c[nH]c2ccc(CS(=O)(=O)N3CCCC3)cc12,inactive: -0.692%,
COc1ccc(/C=N/NC(=O)c2cc3c(OC)ccc(OC)c3[nH]2)cc1O,inactive: 23%,
COc1cc(SC)ccc1C(=O)OCc1nc2ccsc2c(=O)[nH]1,inactive: 3.67%,
COc1cccc(N=c2oc3cc(O)ccc3cc2C(=O)NCC2CCCO2)c1 (centres undefined),inactive: 21.9%,
COc1ccc(Nc2nnc(SC(C(=O)Nc3cc(C)ccc3C)c3ccccc3)s2)cc1 (centres undefined),inactive: -0.797%,
Nc1ccc(Br)cc1C(=O)O,inactive: -0.955%,
OC(c1ccccc1)c1nc(-c2ccccc2)cs1 (centres undefined),inactive: -0.205%,
Cc1cc(C)n(CCCNCC(O)c2ccccc2)n1 (centres undefined),inactive: 23.8%,
CCC1C(=O)CC(c2ccco2)NC1c1ccco1 (centres undefined),inactive: -0.709%,
Cc1ccccc1OCCCCn1cnc2ccccc21,inactive: -0.482%,
COc1ccc(-c2cc(=O)c3c(OC)c(OC)c(OC)c(OC)c3o2)cc1OC,inactive: 9.93%,
CCCn1c(SCC(=O)N2CCCc3ccccc32)nc2c1c(=O)n(C)c(=O)n2C,inactive: 7.7%,
O=C(CCN1C(=O)c2ccccc2C1=O)N(CCO)Cc1ccccc1,inactive: -1.28%,
CCOC(=O)c1c(NC(=O)Cc2ccccc2)sc2c1CCN(CC)C2,inactive: 1.77%,
Cc1cccc(Nc2nc(N)c([N+](=O)[O-])c(NCc3ccccc3)n2)c1,inactive: 17.5%,
Cc1nc2c(c3c1[nH]c1ccccc13)C(=O)CC(C)(C)C2,inactive: 3.4%,
CCOc1ccc(Cc2nccc3cc(OCC)c(OCC)cc23)cc1OCC,inactive: 27.8% [at 19.8 µM],
Nc1nc(Nc2ccccc2)nc(NCc2ccccc2)c1[N+](=O)[O-],inactive: 18%,
CCOC(=O)c1cc2c(=O)n3ccccc3nc2n(C(C)C)c1=NC(=O)c1ccncc1,inactive: 27.4%,
CN(CC(=O)Nc1ccc(S(=O)(=O)N2CCCC2)cc1)Cc1ccc(Cl)cc1Cl,inactive: 3.21%,

Compound,activation,Potency
CC1CCCC(C)N1C(=O)c1ccc2c(c1)S(=O)(=O)c1ccccc1C2=O (centres undefined),inactive: 8.97%,
O=C(NCc1ccco1)c1ccc(Cn2c(=O)c3sccc3n(Cc3cccc(F)c3)c2=O)cc1,inactive: 1.42%,
Cc1ccc(Nc2c(-c3ccc(N4CCOCC4)cc3)nc3cnccn23)cc1,inactive: 10.3%,
O=C(O)c1cccnc1,inactive: 1.83%,
O=C(O)c1nn(CCOc2c(Cl)cccc2Cl)c(=O)c2ccccc12,inactive: 11.1%,
CCOc1ncccc1C(=O)Nc1ccc(S(=O)(=O)Nc2nc(C)cc(C)n2)cc1,inactive: 6.22%,
Cc1ccc(-n2ncc3c2ncn2nc(-c4ccco4)nc32)c(C)c1,inactive: 0.187%,
CCN(Cc1cnn(C)c1)C(=O)CC1C(=O)NCCN1Cc1cccc(OC)c1OC (centres undefined),inactive: -0.803%,
Cc1ccc(CNc2ncnc(N)c2[N+](=O)[O-])cc1,inactive: 1.93%,
Cc1coc2c1c(C)cc1oc(=O)c(CC(=O)NCCCCCC(=O)O)c(C)c12,inactive: -0.676%,
CCN(CC)S(=O)(=O)c1ccc2oc(C(=O)N3CCOCC3)c(C)c2c1,inactive: -0.33%,
O=[N+]([O-])c1ccc2nonc2c1Nc1cccc(F)c1,inactive: 12%,
CCOc1ccc(C(=O)Nc2ccncc2)cc1,inactive: -0.776%,
COc1ccc(C(=O)N2CCCC(c3ccccc3)C2)cc1 (centres undefined),inactive: -0.361%,
CC(CCc1ccco1)NC(=O)c1cccc2c1C(=O)N(C1CCCCC1)C2 (centres undefined),inactive: 6.34%,
COc1ccc(C(C)=O)cc1COC(=O)c1ccc(C)c(S(=O)(=O)N2CCOCC2)c1,inactive: 5.7%,
C=CCc1ccc(OCCOc2cccc3ccc(C)nc23)c(OC)c1,inactive: 4.18%,
COc1ccc2c(c1)oc(=O)c1ccccc12,inactive: 6.5%,
Cc1nc(N2CCN(c3ccccn3)CC2)c2c(C)c(C(=O)N3CCN(c4cccc(Cl)c4)CC3)sc2n1,inactive: 0.254%,
O=C(OCCOc1ccccc1Cl)c1ccc(-n2cnnn2)cc1,inactive: 7.11%,
FC(F)(F)c1cccc(N2CCc3cn[nH]c32)c1,inactive: 3.12%,
COc1ccc(OC)c(NC(=O)C2(C)CCN2Cc2ccc(SC)cc2)c1 (centres undefined),inactive: 2.52%,

Compound,activation,Potency
CC(C)C(=O)c1c(C(C)C)nn2ccccc12,inactive: 4.75%,
COc1ccc(-c2nnc(-c3cccnc3)o2)cc1OC,inactive: 2.98%,
COc1ccc(N2C[C@H](CSC)[C@@H](CC(=O)Nc3ccccc3)C2=O)cc1,inactive: -0.4%,
COc1ccc(C)cc1N(C(=O)c1snc(C(N)=O)c1N)C(C(=O)NC1CCCCC1)c1ccc(C)o1 (centres undefined),inactive: -0.356%,
c1ccc(Oc2ncnc3sccc23)cc1,inactive: 2.76%,
O=C(CCCl)Nc1nc2c(s1)CCc1ccccc1-2,inactive: 7.9%,
Cc1ccccc1Cn1nc(C)c(NC(=O)/C=C/c2cnn(C)c2)c1C,inactive: -0.834%,
c1csc(-c2ccc3ccccc3n2)c1,inactive: -0.411%,
COCCNc1nc(Nc2ccc(C)cc2C)c2sccc2n1,,active: 9.2 µM
Cc1cccc(Nc2nc3c(c(=O)n(C)c(=O)n3C)n2Cc2ccccc2)c1,inactive: 1.5%,
CCOC(=O)c1sc2nc(N3CCOCC3)c3c(c2c1N)CCC3,inactive: 7.48%,
O=C(CO)[C@@H](O)[C@H](O)[C@@H](O)C(=O)O,inactive: -0.423%,
COc1cc2c(cc1OC)CN(c1ncccc1[N+](=O)[O-])CC2,inactive: 7.74%,
O=[N+]([O-])c1cc(S(=O)(=O)C(F)(F)F)ccc1N1CCN(c2ccccc2)CC1,inactive: -0.414%,
O=C(CSc1nnc(-c2ccccc2Br)o1)N1CCc2ccccc2C1,inactive: 3.85%,
O=C(NCc1ccco1)c1cccc2c(-c3ccc(F)c(F)c3)coc12,inactive: 15.6%,
Cc1c(/C=N\NC(=O)C2COc3ccccc3O2)c2ccccc2n1C (centres undefined),inactive: 14.8%,
O=C(/C=C/c1cccc(F)c1)Nc1ccc(S(=O)(=O)Nc2ncccn2)cc1,inactive: 2.02%,
CCn1ncc(C2=NOC(C(=O)Nc3ccccc3C(=O)OC)C2)c1C (centres undefined),inactive: 6.52%,
Cc1cccc(NC(=O)COc2ccccc2)c1,inactive: -0.34%,
COc1ccc(C2=NCCc3cc(OC)c(OC)cc32)cc1OC,inactive: 9.08%,
CC(C)Cn1cnc2c(SCCc3ccccc3)nc(N)nc21,inactive: 2.22%,

Compound,activation,Potency
CCc1ccc(OCC2c3cc(OC)c(OC)cc3CCN2C(C)=O)cc1 (centres undefined),inactive: 9.92%,
COc1cc(-c2cnc3c(NC=O)cc(-c4ccccc4Cl)cn23)cc(OC)c1OC,,active: 5.8 µM
COCCN1CCn2c(nc3cc(NC(=O)Cn4nc(C)c5ccccc5c4=O)ccc32)C1,inactive: 2.07%,
CCOC(=O)COc1ccc(/C=C2/SC(=Nc3ccccc3)N(Cc3cccnc3)C2=O)cc1OC,inactive: 21.1%,
COc1cc2cc(C)c(SCC(=O)N3CCN(C(=O)c4ccco4)CC3)nc2cc1OC,inactive: 16.6%,
CCN(Cc1ccc(OC)c(F)c1)C(=O)c1oc2ccccc2c1COC,inactive: 19%,
O=S(=O)(c1cccc(-c2nc3ccccc3s2)c1)N1CCCC1,inactive: 10%,
COCCCn1c(=O)c2sccc2n(Cc2ccccc2)c1=O,inactive: -0.164%,
COc1ccc(C2c3ccc(O)cc3Oc3ncn4nc(-c5ccccn5)nc4c32)cc1OC (centres undefined),inactive: 12.7%,
CC(C)NC(=O)NC(=O)COC(=O)C1(C)CC1(Cl)Cl (centres undefined),inactive: -0.221%,
O=C1[C@H](CC[C@H](O)c2ccc(F)cc2)[C@@H](c2ccc(O)cc2)N1c1ccc(F)cc1,inactive: -0.287%,
COC(=O)Nc1nc(-c2ccccc2)c(C(=O)c2ccccc2)s1,inactive: 23.9%,
COCCNC(=O)c1ccc2c(c1)ncn2-c1ccc(C)c(Cl)c1,inactive: 4.58%,
CN(C)c1nc(OCCOC(=O)Nc2ccc(Cl)cc2Cl)nc(N(C)C)n1,inactive: 3.5%,
CCCCN(CCCNC(=O)c1c(C)cc(=O)oc1C)c1ccccc1,inactive: -0.747%,
Cc1ccc2c(CSc3nc4ccccc4c(=O)n3CCCO)cc(=O)oc2c1C,inactive: 24%,
NC(c1ccccc1)c1ccncc1 (centres undefined),inactive: -0.625%,
CCOC(=O)c1ccc(NC(=S)N(CCCN2CCCCC2)Cc2ccco2)cc1,inactive: -0.472%,
CCCCCCn1c(N2CCC(C)CC2)nc2c1c(=O)[nH]c(=O)n2C,inactive: 7.97%,
CC1(C)NC(=O)N(CCCOc2ccc(Br)cc2Cl)C1=O,inactive: -0.718%,
COc1ccc(/C=C(\C#N)C(=O)Nc2ccccn2)cc1,inactive: 0.0306%,
COc1cc2c(cc1OC)-c1cc(OCc3cccnc3)nc(=O)n1CC2,inactive: 14.3%,

Compound,activation,Potency
CCCCn1c(SCc2ccc(C(=O)OC)o2)nc2cc(S(N)(=O)=O)ccc21,inactive: 5.89%,
CCn1c(C)cc(/C=C2/SC(=O)N(C(C)C(=O)OC)C2=O)c1C (centres undefined),inactive: 1.7%,
Cn1c(=O)[nH]c(=O)c2c1nc(Sc1ncccn1)n2CCCc1ccccc1,inactive: 2.01%,
Cc1ccc(-c2nc3ccccc3c(=O)n2CCCN2CCOCC2)cc1,inactive: -0.601%,
COc1ccc(CN(C)C(=O)COC(=O)c2cc([N+](=O)[O-])ccc2N2CCCC2)c(OC)c1OC,inactive: 16.9%,
COc1cccc(Nc2nc(N)c([N+](=O)[O-])c(NCc3ccco3)n2)c1,inactive: 21.8%,
CCN1C(=O)c2cccc3c(NC(=O)c4ccccc4)ccc1c23,inactive: 7.45%,
CCN1CCN(c2nc3sc4c(c3c(=O)n2-c2ccc(OC)cc2)CCCCC4)CC1,inactive: 1.84%,
COC(=O)Cc1c(C)c2ccc(OCc3nn[nH]n3)cc2oc1=O,inactive: -0.628%,
COc1ccc(-c2nn3c(-c4ccccc4)nnc3s2)cc1OC,inactive: 25.9%,
COc1ccc(C(=O)NCC2(c3ccc(OC)c(OC)c3)CCCC2)cc1OC,inactive: 14.5%,
COc1ccc(C2=NN(C(C)=O)C(c3cccs3)C2)cc1OC (centres undefined),inactive: 14.1%,
CC(C)CCOC(=O)C1[C@H]2C(=O)N(Cc3cccs3)C[C@]23C=C[C@H]1O3 (some centres undefined),inactive: -0.642%,
CCOC(=O)c1ccc(CNC(=O)CSc2nc(NC(=O)c3ccccc3)c3c(C)c(C)oc3n2)cc1,inactive: 1.67%,
CCOc1ccc(S(=O)(=O)N(C)CCO)cc1-c1nc2c(C(C)(C)C)nn(C)c2c(=O)[nH]1,inactive: 5.32%,
COc1ccc(C(=O)/C=C/c2ccc(N(C)C)cc2)c(OC)c1,inactive: 4.92%,
CCOCCn1ccc2c(OCC(=O)Nc3ccccc3OC)cccc2c1=O,inactive: 17.4%,
COc1ccc(C2c3cc(OC)c(OC)cc3CC3C(=O)OCC32)cc1OC (centres undefined),inactive: 16.3%,
COC(=O)CSc1ncnc2scc(-c3ccccc3)c12,inactive: 8.75%,
Cc1cccc2nc(COc3ccc(Cl)c4cccnc34)cn12,inactive: 5.11%,
Cc1ccc2c(c1)C(=O)C(=O)N2CCOc1ccccc1,inactive: 13.9%,
